About 60 (0.1%) of roughly 46,000 compounds were called active. Not shown: some 3% with an inconclusive outcome. Calls follow the shape of the dose curve; as a rule, active = well fitted inhibition curve with a large enough effect; inconclusive = small, poorly fitted or top-dose-only effect; inactive = no such curve, though single readings can be large or run the other way. Some of the results follow.
Assay: Primary qHTS assay for Inhibitors of ovarian cancer metastasis using an organotypic tumor microenvironment (TME) model. Also: nearly all actives have a fitted effect of over 65% in size.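 As to activity change, negative = inhibition: plate controls were DMSO wells for no effect and tomatine positive control wells for full effect.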
Conditions: SKOV3ip1-GFP adhesion/invasion on 3D omental model, fluorescence; series mostly up to 45.8 µM; activity change, negative = inhibition: at the top concentration
In short: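 Adhesion/invasion was scored as fixed GFP-labeled SKOV3ip1 cell counts (488/509 nm), normalized to DMSO and tomatine controls. Cancer cells in serum-free medium, with four compound doses (0.36-46 umol/L), sat 2 hr at RT then 16 hr at 37 C on a 48 hr fibroblast/mesothelial/ECM culture.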

Activity change, negative = inhibition, inactive:
Fc1ccc(-c2cn3cc(Cc4ccc(Cl)cc4)sc3n2)cc1 10.3%
CCOC(=O)CSc1nc2ccc(NC(=O)c3ccccc3F)cc2s1 6.49%
COC(=O)c1ccc2c(=O)n(CCCCCC(=O)N3CCN(c4ccc(OC)cc4)CC3)c(=O)[nH]c2c1 10.8%
CCOC(=O)c1sc(NC(=O)c2cc(-c3ccc(F)cc3)on2)c(C(=O)OCC)c1C 0.176%
Cc1ccc(NC(=O)C2CCCN(S(=O)(=O)c3cccc4cccnc34)C2)c(C)c1 (stereo not given) 13.4%
Cc1c(CC(=O)NCCc2ccc(Cl)cc2)c(=O)oc2c(C)c3occ(C(C)(C)C)c3cc12 6.57%
CCOC(=O)c1c(-c2ccccc2)csc1NC(=O)c1cc(-c2ccc(Cl)cc2)on1 -3.24%
CC1=C(C(=O)Nc2ccc(C)cc2C)C(c2ccccc2)n2ncc(C(=O)Nc3ccccc3)c2N1 (stereo not given) 1.19%
Cc1ccccc1-c1nc2cc(NC(=O)COc3ccc(F)cc3)ccc2o1 -1.59%
COC(=O)C1=C(C)NC(C)=C(C(=O)OCCN2CCN(C(c3ccccc3)c3ccccc3)CC2)C1c1cccc([N+](=O)[O-])c1 (stereo not given) -6.15%
CCOc1ccc(CNC(=O)c2ccc(Sc3ccc(Cl)cc3)c(NC(C)=O)c2)cc1OC 1.63%
O=c1c(N2CCc3ccccc3C2)csc2ccccc12 -14.9%
Cc1ccc(C2CCN(C(=O)c3cnn(-c4ccc(C)cc4)c3C3CCN(C(=O)OC(C)(C)C)CC3)C2)cc1 (stereo not given) 6.13%
CC1=C(C(=O)Nc2cccnc2)C(c2ccccc2)n2nc(-c3ccc(O)cc3)nc2N1 (stereo not given) -5.21%
CC(=O)N1CCCc2cc(S(=O)(=O)N3CCCC(C(=O)Nc4cc(Cl)ccc4C)C3)ccc21 (stereo not given) -5.87%
COc1ccc(NC(=O)c2ccc3c(=O)n4nc(Nc5cccc(Cl)c5C)sc4nc3c2)cc1 0.528%
CCOc1ccc(-c2nc3c(c(SCC(=O)N4CCCCC4)n2)Cc2ccccc2O3)cc1 3.33%
O=C(C1CCCN(S(=O)(=O)c2ccc(Br)s2)C1)N1CCN(c2ccccc2)CC1 (stereo not given) 11.6%
CNC(=O)C1CCC(Cn2c(=O)c3sccc3n(CC(=O)NCc3ccc(F)cc3)c2=O)CC1 (stereo not given) 10.4%
CCOc1ccccc1NS(=O)(=O)c1ccc(-c2cnc(C3CC3)o2)cc1 9.53%
Cc1ccc(-c2csc(=Nc3ccc(F)cc3)n2Cc2ccc3c(c2)OCO3)cc1C -4.7%
Cc1c(Cl)cccc1NC(=O)c1ncn(-c2ccccc2)n1 -5.78%
Cc1ccc(NS(=O)(=O)c2ccc3c(c2)CCCN3C(=O)C2CCC2)cc1Cl -3.96%
Cc1ccc(NC(=O)CCS(=O)(=O)c2cc3c4c(c2)CCN4C(=O)CC3)c(C)c1 22.1%
O=C(Nc1nnc(S(=O)(=O)Nc2ccccc2)s1)c1ccccc1Cl -5.11%
COCCNc1nc2c(S(=O)(=O)c3ccc(C)c(C)c3)nnn2c2ccc(Cl)cc12 6.66%
Cc1nc2nncn2c(NCc2ccc(F)cc2)c1C 5.44%
COc1cc(OC)cc(C(=O)Nc2ccc(S(=O)(=O)Nc3ncccn3)cc2)c1 -9.4%
CCCCN(C)C(=O)C1CCC(CNS(=O)(=O)c2ccc(Cl)cc2)CC1 (stereo not given) -0.0155%
Cc1ccc(CS(=O)(=O)c2ncc(Cl)c(C(=O)Nc3nc4ccc(F)cc4s3)n2)cc1 -9.4%
CCOC(=O)c1c(S(=O)(=O)NCC(=O)NCc2cccc(C)c2)c(C)n(C)c1C 1.43%
Cc1ccc(-c2nc3c(c(SCC(=O)Nc4ccccc4Cl)n2)Cc2c(CO)cnc(C)c2O3)cc1 16.2%
O=C(NCc1ccc(F)cc1)c1c(O)nc2ccccn2c1=O -28.3%
Cc1cc(Nc2cccc(C(F)(F)F)c2)nc2ccc(NC(=O)c3ccc(=O)[nH]c3)cc12 -4.24%
CCOc1ccc(-n2c(=O)c3c4c(sc3n(CC(=O)Nc3cccc(C(F)(F)F)c3)c2=O)CCCCC4)cc1 -16.6%
O=C(COc1ccccc1)Nc1nnc(S(=O)(=O)N2CCCC2)s1 2.98%
Cc1ccc2c(=O)cc(CSCC(=O)Nc3nnc(C)s3)[nH]c2c1 -19.3%
COc1ccc(Br)cc1C1Sc2ccccc2NC2=C1C(=O)c1ccccc12 (stereo not given) -0.974%
COc1ccc(NC(=O)COc2ccc(S(=O)(=O)NC3CCCCC3)cc2)cc1OC -4.08%
O=C(Nc1ccccc1)c1ccc(Br)c(S(=O)(=O)N2CCCCC2)c1 3.21%
COc1ccc(NC(=O)C2CCC(CNS(=O)(=O)c3ccc(Br)s3)CC2)cc1OC (stereo not given) -19.6%
CCCC(=O)OCc1cnc(C)c2oc(=O)c(C(=O)Nc3ccccc3)cc12 -15.3%

outcome, inactive:
CCc1ccc(-n2nc3ccc(NC(=O)c4ccc(C#N)cc4F)cc3n2)cc1
COc1cccc(CNC(=O)C2CCN(c3nnc(-n4c(C)ccc4C)s3)CC2)c1
O=C(NCCc1ccccc1)c1ccc2c(c1)N(Cc1ccccc1F)C(=O)c1ccccc1S2=O (stereo not given)
CC(=O)Nc1ccc(NC(=O)c2oc3ccc4c(c3c2C)C(=O)CC(C)(C)O4)cc1
Cc1ccc(-c2ccc(=O)n(CC(=O)Nc3cccc(C#N)c3)n2)cc1
Cc1ccc(NC(=O)CN2C(=O)C3(SCC(=O)N3c3cccc(Cl)c3)c3ccccc32)cc1C (stereo not given)
Cc1nn(-c2ccccc2)c2sc(C(=O)Nc3ccccc3Br)cc12
COc1ccc(CCNC(=O)CSc2nc(-c3ccc(F)cc3)cc(C(F)(F)F)n2)cc1OC
Cc1cccc(C(=O)Nc2nnc(S(=O)(=O)N(C)Cc3ccco3)s2)c1
O=C(NCc1ccc2c(c1)CCN2C(=O)c1ccc(Cl)cc1)c1cccc(F)c1
CCc1noc(-c2ccc(N3CCCCC3C)c([N+](=O)[O-])c2)n1 (stereo not given)
CCC(Oc1ccccc1)C(=O)Nc1cc(-c2ccccc2OC)nn1-c1ccccc1 (stereo not given)
CN(Cc1ccccc1)c1ncnc2onc(-c3ccc(F)cc3)c12
CCCCOc1cccc(NC(=O)CSc2nnc(C)s2)c1
O=C(OCC1CCCO1)c1ccc2c(c1)N(Cc1ccccc1Cl)C(=O)c1ccccc1S2(=O)=O (stereo not given)
O=C(Nc1ccc2oc(-c3ccc4ccccc4c3)nc2c1)c1ccccc1F
O=C(Nc1cccc(Cl)c1)c1cnc[nH]1
CC(NC(=O)CCNS(=O)(=O)c1cccc2nsnc12)c1ccccc1 (stereo not given)
